± gives the standard deviation. Over roughly 6,600 sequences, “pre-steady-state target cleavage rate” has its median near 0.07; the highest 2% begin near 0.72. The list shows a part of the results, in another mix than the full data.
system: MIWI (PIWIL1) piRISC loaded with Kctd7 piRNA (30 nt); test: pre-steady-state target cleavage rate (min^-1); MIWI and MILI are mouse PIWI proteins and EfPiwi is from a freshwater sponge; tags in brackets are library labels; higher = faster piRNA-guided slicing of the target; conditions: guide: Kctd7 piRNA 5'p-UGUUAAUCUCUCAGAGAAGGUGACAGUGAU; auxiliary factor: 500 nM mouse GTSF1
How it was run: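 Reactions were run for 0–8 or 0–960 min at 33 °C in HEPES–potassium acetate buffer, combining 1 nM active affinity-purified piRISC with one synthetic guide, […] transcribed, DNA-blocked target RNA library and, in some cases, 500 nM GTSF1 partner protein. Sequencing of uncleaved targets followed, with normalisation to depth and to weakly complementary targets. Three trials were pooled, k3 was capped at 0.0001 min^-1, and the pre-steady-state cleavage rate was taken from a burst-and-steady-state fit.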
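Also: 1 nM active piRISC with 0.1 nM target library at 33 °C single turnover.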

Going from UACACUGUCACCUUCUCUGAGAGCAUUAACA to UACACUGUCACCUUCUCUCAGAGAUAAACA, the “pre-steady-state target cleavage rate” value falls from 0.343 ± 0.032 to 0.0525 ± 0.011.

Going from UAGUGACUCACCUUCUCUGACAGAUUAUCA to UAGUGUGUCAGCUUCUCUGACAGAUUAACA, the “pre-steady-state target cleavage rate” value rises from 0.087 ± 0.015 to 0.174 ± 0.028.

Going from UACUGUGUCACCUUCUCUGAGAGAUUAACA to UACACUGUCACCAUCUCUGAGAGAUAUUGA, the “pre-steady-state target cleavage rate” value falls from 0.63 ± 0.027 to 0.00944 ± 0.0048.

First: UAGUGACUGACGUUCUCUGAGAGAUUAACA
Second: UAGUGACAGACCUUCUCUGAGAGAUUCACA
The “pre-steady-state target cleavage rate” value of the first is lower: 0.0452 ± 0.0081 for the first, 0.0961 ± 0.022 for the second.

Compared with UUCACUGUCAACCUUCUCUGAGAGAUUAACA, UAGUGACUCAGCUUCACUGAGAGAUUAACA is lower in “pre-steady-state target cleavage rate” value: 0.271 ± 0.019 for the first, 0.158 ± 0.025 for the second.

Going from AUCUCUGUCACCUUCUCUGAGAGUUUAACA to UAGUGUGUCACCAUCUCUGAGAGAUUAAGA, the “pre-steady-state target cleavage rate” value falls from 0.711 ± 0.12 to 0.0632 ± 0.015.

First: UAGUCUGUCACCUUCUCUGACAGAAUAACA
Second: UAGUCUGUCUCCUUCUCUGAGAGAUUUACA
The “pre-steady-state target cleavage rate” value of the first is lower: 0.0183 ± 0.0055 for the first, 0.199 ± 0.029 for the second.

Compared with UAGUCUCUCACCUUCUCUGAGUGAUUAACA, AUCUCUGUCACCUUCUCUGAGAGAUUAAGA is higher in “pre-steady-state target cleavage rate” value: 0.0299 ± 0.0065 for the first, 0.119 ± 0.021 for the second.

Compared with UAGUGACACACCUUCUCUGUGAGAAUAACA, AACACUGUCACCUUCUCUGAGUGAUUAACA is higher in “pre-steady-state target cleavage rate” value: 0.0281 ± 0.0073 for the first, 0.0448 ± 0.0074 for the second.

First: UAGACUGUCACCUUCUCUGAGAGAUUUACA
Second: UUCUCUGUCACCUUCUCUGAGACAUUAACA
The “pre-steady-state target cleavage rate” value of the first is higher: 0.369 ± 0.049 for the first, 0.29 ± 0.024 for the second.

Going from UAGUCUGUCACGUUCUCUCAGAGAUUAACA to UUCACUGACACCUUCUCUGAGAGAUUAUGA, the “pre-steady-state target cleavage rate” value rises from 0.0637 ± 0.0058 to 0.185 ± 0.043.

UAGUGACUCACCUUCUCUGAGAGAAAAACA and UAGUGACACACAUUCUCUGAGAGAUUAACA are within error of each other in “pre-steady-state target cleavage rate” value: 0.136 ± 0.03 for the first, 0.177 ± 0.018 for the second.

First: UAGUGACUGACCUUCUCUCAGAGAUUAACA
Second: UAGUGACAGACCUUCUCUGAGAGAUUUACA
The “pre-steady-state target cleavage rate” value of the first is lower: 0.0111 ± 0.005 for the first, 0.0894 ± 0.014 for the second.

First: UAGUGACUGACCUUCUCUGAGAGUUUAACA
Second: UAGUGACAGUCCUUCGCUGAGAGAUUAACA
The “pre-steady-state target cleavage rate” value of the first is higher: 0.0982 ± 0.018 for the first, 0.00917 ± 0.0021 for the second.

Going from UAGACUGUCACCUUAUCUGAGAGAUUAACA to UUGACUGUCACCUUCUCUCAGAGAUUAACA, the “pre-steady-state target cleavage rate” value falls from 0.651 ± 0.038 to 0.0999 ± 0.0057.

Going from AUCACUGUCACCUACUCUGACAGAUUAACA to AUCACUGUCUCCUACUCUGAGAGAUUAACA, the “pre-steady-state target cleavage rate” value rises from 0.208 ± 0.021 to 0.622 ± 0.038.

Compared with UUCACUGUCACCUUCUGUGAGAGAUUUACA, UUCACUGUCACCUUCUCUGAGAGAUUAAA is higher in “pre-steady-state target cleavage rate” value: 0.166 ± 0.025 for the first, 0.243 ± 0.032 for the second.

First: AUCACUGUCACCUUCUCUGAGAGUAAAAGA
Second: UACACUGAGUCCUUCUCUGAGAGAUAUUGA
The “pre-steady-state target cleavage rate” value of the first is higher: 0.0962 ± 0.028 for the first, 0.0106 ± 0.0041 for the second.

First: UAGUGACAGUGCUUCUCUGAGAGAUUAAAA
Second: UAGUGAGACACCUUCUCUGAGAGAUUAACA
The “pre-steady-state target cleavage rate” value of the first is lower: 0.00713 ± 0.0029 for the first, 0.497 ± 0.027 for the second.

Going from UAGUGACAGUGCUUCUCUGAGAGAUCAACA to UAGUGACAGUGGUUCCUCUGAGAGAUUAACA, the “pre-steady-state target cleavage rate” value falls from 0.00952 ± 0.0016 to < 0.0001.

First: UAGUGACAGACCUUCUCUGAGAGUUUAACA
Second: UAGUGACAGAACCUUCUCUGAGAGAUUAACA
The “pre-steady-state target cleavage rate” value of the first is lower: 0.066 ± 0.013 for the first, 0.204 ± 0.018 for the second.

UACACUGUCACCUUCUCUCAGAGAUUAUGA and UAGUGUGUGUCCUUCUCUGAGAGAUUAAGA are within error of each other in “pre-steady-state target cleavage rate” value: 0.0194 ± 0.011 for the first, 0.0367 ± 0.0083 for the second.

First: UACACUGUCACCUUCUCUGAGAGAUUAACCA
Second: UAGACUCUCUCCUUCUCUGAGAGAUUAACA
The “pre-steady-state target cleavage rate” value of the first is higher: 0.629 ± 0.053 for the first, 0.302 ± 0.02 for the second.

First: UAGUGUGUCAGGUUCUCUGAGAGAUUAUGA
Second: UACACUGUCACCUUCUCUGAAGAUUAACA
The “pre-steady-state target cleavage rate” value of the first is lower: 0.00941 ± 0.0032 for the first, 0.0277 ± 0.01 for the second.

Going from UAGACUGUCACCUUCGUCUGAGAGAUUAACA to AUCACUGACACGUUCUCUGAGAGAUUAACA, the “pre-steady-state target cleavage rate” value rises from 0.0773 ± 0.018 to 0.601 ± 0.03.

First: UACACUGUCACCAUCUCUGAGAGAUUAAGA
Second: UAGUGUGUCACCUUCUCUGAGAGAUUUAACA
The “pre-steady-state target cleavage rate” value of the first is lower: 0.0844 ± 0.017 for the first, 0.477 ± 0.061 for the second.

Going from UAGUCUGUCACUUUCUCUGAGAGAUUAACA to UAGUGACUCACCUUCUCUGAGAGAAUUAACA, the “pre-steady-state target cleavage rate” value falls from 0.642 ± 0.023 to 0.242 ± 0.035.

Going from UAGACUGUCACCUUCUCUGAGUAGAUUAACA to UUCACAGUCACCUUCUCUGAGACAUUAACA, the “pre-steady-state target cleavage rate” value rises from 0.00464 ± 0.0024 to 0.242 ± 0.022.

Going from UAGUGACACACCUUCUCUGAGAGAAUAAGA to UAGACUCUCACGUUCUCUGAGAGAUUAACA, the “pre-steady-state target cleavage rate” value rises from 0.0102 ± 0.0058 to 0.351 ± 0.022.

First: UAGUGUGUCACCUUCUCUGAGAGUAUAACA
Second: UAGUGAGUCACCUUCACUGAGAGAUAAACA
The “pre-steady-state target cleavage rate” value of the first is higher: 0.24 ± 0.052 for the first, 0.125 ± 0.02 for the second.

Compared with UAGACUGACACCUUCUCUGAGAGAUUAACA, UAGUGAGAGACCUUCUCUGAGAGAUUAACA is lower in “pre-steady-state target cleavage rate” value: 0.62 ± 0.035 for the first, 0.2 ± 0.016 for the second.

Compared with UACACUGUAACCUUCUCUGAGAGAUUAACA, AUCACUGUCACCAUCUCUGAGAGAUUUUGA is lower in “pre-steady-state target cleavage rate” value: 0.545 ± 0.032 for the first, 0.071 ± 0.023 for the second.

First: UAGUGAGUCACGAACUCUGAGAGAUUAACA
Second: AUCACUGUCACCUUCACUGAGAGAUUUACA
The “pre-steady-state target cleavage rate” value of the first is lower: 0.0474 ± 0.0069 for the first, 0.511 ± 0.082 for the second.

Going from UUCAGUGUCACCUUCACUGAGAGAUUAACA to UAGUGACAGACGUUCUCUGAGAGAUUUACA, the “pre-steady-state target cleavage rate” value falls from 0.38 ± 0.03 to 0.00697 ± 0.0028.

First: UAGUCUGUCACCAUCUCUGAGAGAUUUACA
Second: UACACUGUCACCUUCUCUGAGUGAUUAUCA
The “pre-steady-state target cleavage rate” value of the first is higher: 0.256 ± 0.032 for the first, 0.0214 ± 0.006 for the second.

First: UAGUGAAUCACCUUCUCUGAGAGAUUAACA
Second: UUGACUGUCACCUUCUCUGAGAGAUUUACA
The “pre-steady-state target cleavage rate” value of the first is higher: 0.538 ± 0.051 for the first, 0.394 ± 0.041 for the second.

Reference: the supplement of paper PMC10338343
